{"source": "the RNAGym collection of RNA variant scans (doi:10.7554/elife.90254)", "parents": {"B1": {"name": "LINE1-mini (parent)", "chain": "GGCAGAGCUCAACACAGCGUGGCAAAGUGGCUGUGGCUAGACUGCC"}}, "note": "Read counts are not given, so values of variants with three or more changes are uncertain."}
{"variants_of": "B1", "test": "self-cleavage, relative activity (ratio to wild type); higher = more cleavage; in vitro, sequencing; the parent is a self-cleaving ribozyme"}
{"variant": "GGCAGGGCUAAACACAGCGUAGCAAAGUGGCGGUGGCUAGACUGCC", "note": "[A6G C10A G21A U32G]", "self-cleavage": 0.01}
{"variant": "GGCAGGGCUCAACACAGUGAGGCAAAGUGGCUGUGGCUAGACUGCC", "note": "[A6G C18U U20A]", "self-cleavage": 0.04}
{"variant": "GGCAGGGCUGAACACAGCGUGGCAAAGUGGCUGUGGCCAGACUGCC", "note": "[A6G C10G U38C]", "self-cleavage": 0.01}
{"variant": "GGCAGGGCUCAGCACAGCGUGGCAAAGUGGCUGUGGCUGGACUGAC", "note": "[A6G A12G A39G C45A]", "self-cleavage": 0.01}
{"variant": "GGCAGGGCUCAAUACAGCGUGGCAAAGUGGCUGUGGCUACACUGCC", "note": "[A6G C13U G40C]", "self-cleavage": 0.05}
{"variant": "GGCAGGGCUCAACAUGGCGUGGCAAAGUGGCUGUGGCUAGACUGCC", "note": "[A6G C15U A16G]", "self-cleavage": 0}
{"variant": "GGCAGGGCUCAACGCAGCGUGGCAAAGUGGCUGUGGCUAUGCUGCC", "note": "[A6G A14G G40U A41G]", "self-cleavage": 0.15}
{"variant": "GGCAGGGUUGAACACAGCGUGGCAAAGUGGCUGUCGCUAGACUACC", "note": "[A6G C8U C10G G35C G44A]", "self-cleavage": 0.01}
{"variant": "GGCAGGGCUCAACACAGAGUUGCAAAGUGGCUGUGGCUAGACUGCC", "note": "[A6G C18A G21U]", "self-cleavage": 0.15}
{"variant": "GGCAGGGCUCCACACAGCGUGGCUAAGUUGCUGUGGCUAGACUGCC", "note": "[A6G A11C A24U G29U]", "self-cleavage": 0.01}
{"variant": "GGCAGGUCUCGACAAAGCGUCUCAAAGUGGCUGUGGCUAGACUGCC", "note": "[A6G G7U A11G C15A G21C G22U]", "self-cleavage": 0.03}
{"variant": "GGCAGGGCUCAACACAGCGUGGUAAAGUGGCUGUGGAUAGACUGCC", "note": "[A6G C23U C37A]", "self-cleavage": 0.02}
{"variant": "GGCAGGGCUCAAGACAGCAUGGCAAAGUGGCUGUGACUAGAUUGCC", "note": "[A6G C13G G19A G36A C42U]", "self-cleavage": 0.14}
{"variant": "GGCAGGGUUCAACACAGCGUGGCAAUGUGGCUGAGGAUAGACUGCC", "note": "[A6G C8U A26U U34A C37A]", "self-cleavage": 0.21}
{"variant": "GGCAGGGCUGAACACAGCGUGGCAAAGUGUAUGUGGCUAGACUGCC", "note": "[A6G C10G G30U C31A]", "self-cleavage": 0}
{"variant": "GGCAGGGCUCAACACAGCGUGGCGAAGUGGCUGUGGAUAGACUGCC", "note": "[A6G A24G C37A]", "self-cleavage": 0.03}
{"variant": "GGCAGGGAUCAACACAGCGUGGGAAAGUGGCUGUGGCUAGACUGCC", "note": "[A6G C8A C23G]", "self-cleavage": 0.35}
{"variant": "GGCAGGGCUCAACAUAGCGUGGCAAAGUGGCUGUUGCUAGACUGAC", "note": "[A6G C15U G35U C45A]", "self-cleavage": 0}
{"variant": "GGCAGGGGGCAACACAGGGUGGCAAAGUCGGUGAGGCUAGACUGCC", "note": "[A6G C8G U9G C18G G29C C31G U34A]", "self-cleavage": 0.01}
{"variant": "GGCAGGGAUCAACACAGCGUGGCAAAGUGGCUGUGGGUAGACUGCA", "note": "[A6G C8A C37G C46A]", "self-cleavage": 0.01}
{"variant": "GGCAGGGCUCAAUACAGCGUGGCAAAGUGGCGGUGGCUAGACUGCC", "note": "[A6G C13U U32G]", "self-cleavage": 0.04}
{"variant": "GGCAGGGGUCAACACAGCGUGGCAAAGUGGCUGUGGGUAGACGGCC", "note": "[A6G C8G C37G U43G]", "self-cleavage": 0.08}
{"variant": "GGCAGGGGUCAACAGAGCGUGGCAAAGUGGAUGUGGGUAGACUGCC", "note": "[A6G C8G C15G C31A C37G]", "self-cleavage": 0.17}
{"variant": "GGCAGGGCUCAACACAGCGUGGCGAAGUGGCAGUGGCUAGACUGCC", "note": "[A6G A24G U32A]", "self-cleavage": 0.15}
{"variant": "GGCAGGGCUCAACACUGCGUGGCAAAGUGGCUGUGGGUAGACUGCC", "note": "[A6G A16U C37G]", "self-cleavage": 0.02}
{"variant": "GGCAGGGCUCAACACAGCGUGGCAAAGUGGCUGUGGCUCGACUUCC", "note": "[A6G A39C G44U]", "self-cleavage": 0.18}
{"variant": "GGCAGGGAUCAACACAGCGUGGCAAAGUGGCUUUGGCUAGACUGCA", "note": "[A6G C8A G33U C46A]", "self-cleavage": 0.13}
{"variant": "GGCAGCGCUCAACACAGCGUGGCAAAGUGGCUGUGGCAAGACUGCG", "note": "[A6C U38A C46G]", "self-cleavage": 0.06}
{"variant": "GGCAGGGCUCAACUCAGCGUGGCGAAGUGGCUGUGUCUAGGCUGCC", "note": "[A6G A14U A24G G36U A41G]", "self-cleavage": 0.05}
{"variant": "GGCAGGACUCAACACAGCGUGGCAAAUUAGCUGUGGCUAGACUGCC", "note": "[A6G G7A G27U G29A]", "self-cleavage": 0.03}
{"variant": "GGCAGGGCUUAACACAGCGUGGCAAAGUGGCUGUGGUUAGACUGCC", "note": "[A6G C10U C37U]", "self-cleavage": 0.01}
{"variant": "GGCAGGGCUCAACAUAGCGUGGCAAAGUGGCUGUUGCUAGACUGCC", "note": "[A6G C15U G35U]", "self-cleavage": 0.27}
{"variant": "GGCAGGGCUCAUCACAUCGUGGCAAAGCGGCUGUUGCUACACUGCC", "note": "[A6G A12U G17U U28C G35U G40C]", "self-cleavage": 0.02}
{"variant": "GGCAGGGCUCAAUACAGCGUGGCAAAGUGCCUGUGGUUAGACUGCC", "note": "[A6G C13U G30C C37U]", "self-cleavage": 0.1}
{"variant": "GGCAGGGCUCUACACCGCGUGGUAAAGUGGCUGUAGCUAGACGGCC", "note": "[A6G A11U A16C C23U G35A U43G]", "self-cleavage": 0.02}
{"variant": "GGCAGGGCUCUACACAGCGUGGCAAAGCGGCUAUGGCUAGCAUGCC", "note": "[A6G A11U U28C G33A A41C C42A]", "self-cleavage": 0}
{"variant": "GGCAGGGCUCAAAACAGCGUGGCAAAGUUGAUGUGGCUAGACUGCC", "note": "[A6G C13A G29U C31A]", "self-cleavage": 0.05}
{"variant": "GGCAGGACUUAACAGAGCGUGGCAAACUGGCUGUGGCUAGACUGCC", "note": "[A6G G7A C10U C15G G27C]", "self-cleavage": 0.01}
{"variant": "GGCAGGGAACAACACAGCGUGGUGAAGUGGCUGUGGCUAGACUGCC", "note": "[A6G C8A U9A C23U A24G]", "self-cleavage": 0.27}
{"variant": "GGCAGGGCUCUACACAGCGUGGCCAAGUGGCUGUGGCUAGACAGCC", "note": "[A6G A11U A24C U43A]", "self-cleavage": 0}
{"variant": "GGCAGGGCUCAACACAGCGUGGAAAAGUGGCUGUGGCUAGACUGCU", "note": "[A6G C23A C46U]", "self-cleavage": 0.1}
{"variant": "GGCAGGGCUAAACACAGCGUGGCAAAGUGGCUGUGGCUAGACUGAC", "note": "[A6G C10A C45A]", "self-cleavage": 0.01}
{"variant": "GGCAGGGCUCAACACAGCGUGGAGAAGUGGCUGUGGCUAGACUGCC", "note": "[A6G C23A A24G]", "self-cleavage": 0.04}
{"variant": "GGCAGGGUCAAACACAGCGUGGCAAAGCGGCUUUGGCUAGACUGCC", "note": "[A6G C8U U9C C10A U28C G33U]", "self-cleavage": 0.09}
{"variant": "GGCAGGGCUGAGCACAGCGUGGCAAAGUGGCUGUGGCUAGACUGCC", "note": "[A6G C10G A12G]", "self-cleavage": 0.01}
{"variant": "GGCAGGGCUCAACACAGUGUGGCAAAGUGACUGUGGCUAGACUGGC", "note": "[A6G C18U G30A C45G]", "self-cleavage": 0.33}
{"variant": "GGCAGGGUUCAACACAGCGUGCCAAAGUGGCUGUGGCGAGACUACC", "note": "[A6G C8U G22C U38G G44A]", "self-cleavage": 0.03}
{"variant": "GGCAGGGCUCAGCACAGCGGGGCAAAGUGGCUGUGUCUAGACUGCC", "note": "[A6G A12G U20G G36U]", "self-cleavage": 0.01}
{"variant": "GGCAGGGCUUAACACAGCGUGGCAAAGUGGCUGUGGCUAGCCUGAC", "note": "[A6G C10U A41C C45A]", "self-cleavage": 0.04}
{"variant": "GGCAGGGGUCAACACAGCGUGGCCAAGUGGCUGUGACUAGACUGCC", "note": "[A6G C8G A24C G36A]", "self-cleavage": 0.01}
{"variant": "GGCAGGGCUCAACACCGCGUGGCAAAGUGGCUGUGGCUAGACUGGC", "note": "[A6G A16C C45G]", "self-cleavage": 0.07}
{"variant": "GGCAGGGCUCGACACAGCGUGGCAAAGUGGCUGAGGCUAGACUGCC", "note": "[A6G A11G U34A]", "self-cleavage": 0.01}
{"variant": "GGCAGGGAUUAACACAGCGUGGCAAAGUCGAUGUGGCUAGACUGCC", "note": "[A6G C8A C10U G29C C31A]", "self-cleavage": 0.01}
{"variant": "GGCAGGGCUUAACACAGCGUGGCUAAGUGGCUUUCGCUACACUGCC", "note": "[A6G C10U A24U G33U G35C G40C]", "self-cleavage": 0}
{"variant": "GGCAGGCCUCAACACUGCGUGGCAAGGUGGCUGUGGCUAGACUGCC", "note": "[A6G G7C A16U A26G]", "self-cleavage": 0.01}
{"variant": "GGCAGGGCUCAACACAGCGUGGCAAAGUGGAUGUGGCUCGACUGCC", "note": "[A6G C31A A39C]", "self-cleavage": 0.03}
